ChEMBL document CHEMBL1201862, “PubChem BioAssay data set” (2004)
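Five concentrations, 48 hours, 96-well plates. GI50 marks 50% less growth.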 Activity calls are given as the source filed them. Cut-off read from the data, not from the text of the source: active = GI50 up to about 1.1 µM and inactive = higher.

Each compound was assayed on NCI-H322M (assay: inhibition of tumour cell growth, NCI panel, 48 h).
In the case of `O=S(=O)(O)c1ccc(NN(c2c(O)ccc3ccccc23)S(=O)(=O)O)cc1`, the GI50 is reported as inactive: > 100 µM. With `CC1=C(c2ccc(C)cc2)NC(=S)C(C)C(c2ccc(C)cc2)=N1` (configuration not stated) the GI50 was inactive: > 100 µM. With `O=C(O)CNC(=O)CO/N=C1/C(=C2/C(=O)Nc3ccccc32)Nc2ccccc21` the GI50 was inactive: > 100 µM. With `Cc1ccc(Nc2nc(=O)c3c4ccccc4n(C(=O)OC(C)(C)C)c3s2)cc1` the GI50 was inactive: 30.7 µM. With `CCOC(=O)C1C2C1C1C(C(=O)OCC)C21` (configuration not stated) the GI50 was inactive: > 100 µM. In the case of `COC(=O)c1ccc(Nc2nc3[nH]cnc3c(=O)[nH]2)cc1`, the GI50 is reported as inactive: 88.1 µM. `Cn1c2ccccc2c(=O)c2cccc(C(=O)NC(CS)C(=O)O)c21` (configuration not stated) was tested, and the GI50 was inactive: > 100 µM. In the case of `C=C(Cl)C(Cl)(CBr)CCCC(C)C` (configuration not stated), the GI50 is reported as inactive: 14.2 µM. In the case of `CCc1ccc2nc(-c3ccc(O)cc3)sc2c1`, the GI50 is reported as inactive: 17.5 µM. With `COc1cc2oc(=O)cc(C)c2c(OC)c1OC` the GI50 was inactive: > 100 µM. `Oc1ccccc1-c1n[nH]c(-c2ccccc2O)n1` was tested, and the GI50 was inactive: 2.18 µM. For `O=c1ccn(C2OC(CN(O)CCC3C(O)C(CO)OC3n3ccc(=O)[nH]c3=O)C(O)C2O)c(=O)[nH]1` (configuration not stated), the GI50 was inactive: > 100 µM. `N/C(=N\c1ccc(Cl)cc1)NS(=O)(=O)c1cccc2nsnc12` was tested, and the GI50 was inactive: 30.3 µM. `Cc1ccc(OCC2=NN3C(=O)/C(=C\c4ccc([N+](=O)[O-])o4)SC3N2)cc1` (configuration not stated) was tested, and the GI50 was inactive: 16.2 µM. `O=C(O)C1OC(n2cc(F)c(=O)[nH]c2=O)CC1O` (configuration not stated) was tested, and the GI50 was inactive: > 51.1 µM. For `O=[N+]([O-])c1ccc(-c2nc3cc(Cl)ccc3[nH]2)cc1`, the GI50 was inactive: > 100 µM. For `Cc1cc(N(CCC#N)CCC#N)ccc1/C=C1N=C(/C=C\c2ccccc2)OC\1=O`, the GI50 was inactive: > 100 µM. `CCN(CC)CCNc1c(OC)cc(C)c2sc3ccccc3c(=O)c12` was tested, and the GI50 was inactive: 10.5 µM. `O=C(CCN1CCCCC1)N1CCc2c([nH]c3ccccc23)C1c1cccnc1` (configuration not stated) was tested, and the GI50 was inactive: 70.6 µM. With `COC(=O)/C(C#N)=C(\Nc1ccccc1)N1CCOCC1` the GI50 was inactive: > 100 µM. In the case of `Clc1ccc(-c2c(C3=NCCCN3)nnn2-c2ccc(Cl)cc2)cc1`, the GI50 is reported as inactive: 37.7 µM. For `O=C1c2ccccc2-c2nc(-c3cccs3)cc3c2c1nc1ccccc13`, the GI50 was inactive: 22.8 µM. In the case of `COC(=O)/C=C/c1ccc2c(c1)CC1(Cc3ccccc3C1)C2`, the GI50 is reported as inactive: > 100 µM. With `C=C(C)[C@H]1Cc2c(ccc3c2O[C@@H]2COc4cc(OC)c(OC)cc4[C@@H]2C3=O)O1` [ROTENONE] the GI50 was active: 0.221 µM. For `COc1ccc(CNc2cnc3cc(N)ccc3n2)cc1`, the GI50 was inactive: > 100 µM. With `O=C1OCCC[C@H]2O[C@@H](COCc3ccccc3)C[C@@H]12` the GI50 was inactive: > 100 µM. `Cc1noc2cccc(O)c12` was tested, and the GI50 was inactive: > 100 µM. In the case of `COc1ccc2nc3cc(Cl)ccc3c(NCCCN3CCN(CCCNc4ccc5nnn6c7ccccc7c(=O)c4c56)CC3)c2c1`, the GI50 is reported as inactive: > 21.4 µM. `CCCCCC1=C2C(c3ccc(OC)cc3)=C(N)C(c3ccc(OC)cc3)=C3NC(=O)C(C=C1)C32` (configuration not stated) was tested, and the GI50 was inactive: > 100 µM. In the case of `C/N=C1\OC2=C3C(c4ccccc4)(O/C(=N/C)N(C)C3(c3ccccc3)OC2=O)N1C` (configuration not stated), the GI50 is reported as inactive: > 100 µM. In the case of `CCOc1ccc(/C=C(\Cl)c2ccc(OC)cc2)cc1`, the GI50 is reported as inactive: > 100 µM. For `CCOc1c(OC)cc(C2c3cc4c(c(OCC)c3CC3COC(=O)C32)OCO4)cc1OC` (configuration not stated), the GI50 was inactive: 4.38 µM. `O=c1c2c3ccccc3[nH]c2c2cccc3c2n1CCC3` was tested, and the GI50 was inactive: 46.2 µM. `CCN(C(C)=N)c1ccccc1` was tested, and the GI50 was inactive: > 100 µM. For `CCN(CC)CCCNc1nncc2cc3c([nH]c4ccc(OC)cc43)c(C)c12`, the GI50 was inactive: 3.08 µM. For `C[C@@H]1OC2(O)[C@@H]3CCCN3C(=O)N(Cc3ccccc3)N2C1=O` (some centres not stated), the GI50 was inactive: > 100 µM. For `N#Cc1c(=O)c2ccccc2n2ccccc12`, the GI50 was inactive: > 100 µM. In the case of `C#C[C@H](CCCC)OC(=O)N[C@H](C)c1ccccc1`, the GI50 is reported as inactive: 61.9 µM. In the case of `Cn1c2ccc3cc2c(=S)c2cc(ccc21)OCCOCCOCCOCCOCCO3`, the GI50 is reported as inactive: > 10 µM. In the case of `Cc1ccc(S(=O)(=O)NC(=O)C2=C3SCCN3C(=O)N(S(=O)(=O)c3ccc(C)cc3)C2c2ccccc2)cc1` (configuration not stated), the GI50 is reported as inactive: 67 µM. With `CS(=O)(=O)OCCn1c(=O)n(CCOS(C)(=O)=O)c(=O)n(CCOS(C)(=O)=O)c1=O` the GI50 was inactive: > 100 µM. In the case of `O=C(Cn1c2ccc(Br)cc2c2nc3ccccc3nc21)NNC(=S)NC1CCCCC1`, the GI50 is reported as inactive: 21.9 µM. `C=C1C(=O)O[C@H](c2ccoc2)C[C@@H]1[C@@]1(C)CCCC2(C)C(=O)OCC21` (some centres not stated) was tested, and the GI50 was inactive: > 100 µM. In the case of `CCOC(=O)[C@@]1(C)CC(O)C(=O)N1C` (some centres not stated), the GI50 is reported as inactive: > 100 µM. With `COc1cccc(CC2Cc3ccccc3CC(=O)N2)c1` (configuration not stated) the GI50 was inactive: 54.2 µM. For `O=C(N/C(=C\c1cccc([N+](=O)[O-])c1)c1nc2c3c(ccc2[nH]1)C(=O)c1ccccc1C3=O)c1ccccc1`, the GI50 was inactive: 19.8 µM. With `CC1=C(C(=O)O)N2C(=O)[C@@H](NC(=O)C(c3ccccc3)N3CSC(=S)N(C(C)C)C3)C2SC1` (some centres not stated) the GI50 was inactive: > 100 µM. With `COC(=O)CC1c2ccccc2N2C(=O)Cc3c([nH]c4ccccc34)C12` (configuration not stated) the GI50 was inactive: > 100 µM. `C=C/C(C)=C\CC1[C@](C)(O)CC[C@H]2C(C)(C)C(O)CC[C@]12C` (some centres not stated) was tested, and the GI50 was inactive: > 100 µM. With `N#CCC1(c2ccc(Cl)cc2)NC(=O)c2ccccc21` (configuration not stated) the GI50 was inactive: > 100 µM. `NC(=O)c1ccc(NCC2=CC(=O)C=CC2=O)cc1` was tested, and the GI50 was inactive: > 100 µM. With `CC(=O)Nc1ccc(OC/C(N)=N/NC(=O)c2ccncc2)cc1` the GI50 was inactive: > 100 µM. With `NNC(=O)CCC(=O)Nc1ccc(Cl)cc1Cl` the GI50 was inactive: > 100 µM. For `CCOc1cc(C2CC(c3ccc(NS(=O)(=O)c4cc([N+](=O)[O-])ccc4C)cc3)=NN2c2ccc([N+](=O)[O-])cc2[N+](=O)[O-])ccc1O` (configuration not stated), the GI50 was inactive: 6.22 µM. With `CC1(C)OC2CC(=O)OCC23C1CC(=O)C1(C)C3CCC2(C)C(c3ccoc3)OC(=O)C3OC321` (configuration not stated) the GI50 was inactive: > 125 µM. `CC(C)N1CC2CC(CN(C(=O)c3ccc(Cl)cc3)C2)C1` was tested, and the GI50 was inactive: > 100 µM. `CN1c2c(O)nc(N)nc2NCC1CCNc1ccc(C(=O)NC(CCC(=O)O)C(=O)O)cc1` (configuration not stated) was tested, and the GI50 was inactive: 1580 µM. In the case of `N#Cc1nc(-c2cccs2)oc1N`, the GI50 is reported as inactive: > 100 µM. For `CCOP(=O)(OCC)/C(C#N)=C\c1ccsc1`, the GI50 was inactive: > 100 µM. With `O=C(Nc1nc2ccccc2n1Cc1ccc(Cl)cc1)NC12CC3CC(CC(C3)C1)C2` the GI50 was inactive: 27.6 µM. With `CC[C@@]1(C[C@H]2C[C@@]3(C(=O)OC)c4[nH]c5ccccc5c4CCN3C2=O)COC2(CCCCC2)O1` the GI50 was inactive: 53.8 µM. With `COc1ccc(CCc2cc(OC)c(O)c(OC)c2)cc1` the GI50 was inactive: > 100 µM. For `C[N+]1(CCCCN2c3ccccc3Sc3cc(N=[N+]=[N-])ccc32)CCN(C(=O)CCNC(=O)Cc2ccc(C(=O)c3ccccc3)cc2)CC1`, the GI50 was inactive: 16.4 µM. In the case of `CN(C)c1n/c(=N/Cc2ccco2)ss1`, the GI50 is reported as inactive: 47.1 µM. For `O=C1c2ccccc2NC(=O)C2C1C(c1ccccc1)CC2(O)c1ccccc1` (configuration not stated), the GI50 was inactive: > 100 µM. In the case of `CCc1n[nH]c(=O)n1N1C(=O)CCC1=O`, the GI50 is reported as inactive: > 100 µM. For `Cc1ccc(C2(N3CCCC3)OC(C)(C)c3cccc4cccc2c34)cc1` (configuration not stated), the GI50 was inactive: 17.7 µM.
